PubChem BioAssay (NCI)
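Test compounds were applied to cells in 96-well plates for 48 hours at 5 doses. GI50: concentration for 50% inhibition of growth. TGI marks complete inhibition of growth.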 Peptide text beside a SMILES is read from it.

Tested on: NCI-H322M lung
Test: DTP human tumour cell line panel, 48 h

Row | Structure (SMILES) | GI50 [µM] | TGI [µM]
1 | NC(=NCCCC1(c2ccccc2)CCCC1)Nc1ccc(Cl)cc1 | 1.76 | 3.42
2 | [O-]c1c[n+](CCCC[n+]2cc([O-])on2)no1 | – | > 100
3 | O=C(NCCO)c1cc2c(cn1)[nH]c1ccccc12 | – | > 100
4 | Cc1[nH]n(C2=NCCN2)c(=O)c1C | – | > 100
5 | CC1=C(C(=O)Nc2ccccc2)C(c2ccc([N+](=O)[O-])cc2)C(C(=O)Nc2ccccc2)=C(C)N1 | – | > 100
6 | C=CCc1c(C)nc(C)nc1N/N=C/C=C/c1ccccc1 | – | > 100
7 | O=C1C=CC(=O)c2c1cc([N+](=O)[O-])c1ccoc21 | – | 39.3
8 | Cc1ccc(/C=N/Nc2nc3ccccc3s2)s1 | – | > 100
9 | Oc1cccc(-c2ccc3c4c2O[C@H]2c5[nH]c6ccccc6c5C[C@@]5(O)[C@@H](C3)N(CC3CC3)CC[C@]425)c1 | – | 9.85
10 | C#Cc1c(C)c(/C=C/C(C)=C/C=C/C(C)=C/C(=O)OC)n(C)c1C | – | > 100
11 | Cc1cccc(-c2nn3c(c2-c2ccnc4ccc(C(N)=O)cc24)CCC3)n1 | > 100 | > 100
12 | Cc1ccc(S(=O)(=O)N2c3ccccc3[C@H]3CCc4c([nH]c5ccccc45)[C@H]32)cc1 | – | > 100
13 | CC(C)C1C(=O)NC(CO)Cc2c[nH]c3c(C(c4c[nH]c5ccccc45)C(O)CO)ccc(c23)N1C (stereo not given) | – | > 100
14 | COc1ccc(-c2nsc3c2NC(=O)CC3c2ccc(F)cc2)cc1 (stereo not given) | 6.46 | > 100
15 | CN(C)CC1CCCC(CN2CCCCC2)C1=O (stereo not given) | – | > 100
16 | COc1ccc2oc(=Nc3ccccc3)c(C(N)=O)cc2c1 | – | > 100
17 | CC1=[N+]([O-])C(C)(C)N(N=O)C1(C)C | – | > 10
18 | CNC(=O)c1c(NC(=O)c2ccc(C(F)(F)F)cc2)sc2c1CCC(=O)C2 | 3.48 | > 82.4
19 | C[C@@H](N)C1CCC(C(=O)Nc2ccncc2)CC1 (stereo not given in full) | > 82.1 | > 100
20 | CC1(C)Oc2ccc3c(=O)c(-c4ccccc4)c(-c4ccccc4)oc3c2C1C(=O)O (stereo not given) | – | > 100
21 | CC1=C(C(=O)Nc2ccccc2C)C(c2ccc(C3C(C(=O)Nc4ccccc4C)=C(C)NC(C)=C3C(=O)Nc3ccccc3C)cc2)C(C(=O)Nc2ccccc2C)=C(C)N1 | – | 23.4
22 | Cc1ccc(-c2cc(-c3ccc(Cl)cc3)nc(/N=C3\C(=O)N(CN4CCOCC4)c4ccccc43)n2)cc1 | – | > 100
23 | C1=Nc2ccc(cc2)N=Cc2ccccc2OCc2cccc(n2)COc2ccccc21 | – | > 100
24 | C=CCOc1ccc(/C(N=Nc2ccc(C)cc2)=N/NC(=O)c2ccccc2)cc1OC | – | > 100
25 | CC1=CC=C2c3ccccc3C=CN2C(=O)C1 | – | > 100

Row | Structure (SMILES) | GI50 [µM] | TGI [µM]
26 | N#CC1(C#N)NC(c2cccnc2)C(C#N)(C#N)NC1c1cccnc1 (stereo not given) | – | > 100
27 | Cc1n[n+](CC(=O)c2ccccc2)c2sc(N)nn12 | – | > 100
28 | O=C(Cc1ccccc1)N[C@@H]1COC(=O)[C@@H]2CCCN2C(=O)[C@@H]2CCCN2C1=O (HELM PEPTIDE1{[O=C(Cc1ccccc1)[*:2]].[O=C([C@@H](CO[*:3])N[*:1])[*:2]].P.P}$PEPTIDE1,PEPTIDE1,2:R3-4:R2$$$V2.0) | – | > 100
29 | CN(C)C(=S)N1C(=S)N(c2ccccc2)C(=Nc2ccccc2)C1=Nc1ccccc1 | – | > 100
30 | C=C1C(=O)OC2/C=C(\C)C3OC3/C=C(/C(=O)OC)C(O)C(OC(=O)C3(C)OC3C)C12 (stereo not given) | – | 23.8
31 | Cc1ccc2c3c(cnc2n1)C(=O)OCCN3C | – | > 100
32 | Nc1ccccc1SC(CC(=O)c1ccccc1)c1ccc([N+](=O)[O-])cc1 (stereo not given) | 15.6 | 29.9
33 | COc1c(C)c2c(c3c1c(=O)c1ccccc1n3C)C=CC(C)(C)O2 | – | 90.6
34 | Cc1ccccc1N=CN(C)C | – | > 100
35 | O=C(O)C1=C(C(=O)Nc2ccccc2)C2C=CC1C2 (stereo not given) | – | > 100
36 | CCOC(=O)N1CC2(C)C=CC1C(C(=O)OC)C2 (stereo not given) | – | > 100
37 | Cn1c2c(c3ccccc31)CCN1OCC=C[C@@H](C(=O)O)[C@@H]21 | – | > 100
38 | COc1cc(-c2nc(NC(C)=O)sc2-c2ccnc(NCCNS(=O)(=O)c3ccccc3)n2)ccc1Cl | 6.57 | > 100
39 | CCN(CC)c1ccc(C2CC(c3cc(OC)c(OC)c(OC)c3)=NN2)cc1 (stereo not given) | > 100 | > 100
40 | Cc1nnc2sc(Cl)nn12 | – | 11.1
41 | CC(C)OC(=O)Nc1cccc(Cl)c1 | – | > 100
42 | CC(=O)NC(CCCCN(Cc1ccccc1)C(=O)NCCCl)C(=O)NCc1ccccc1 (stereo not given) | – | > 100
43 | CC(/C=C/C(=O)c1sc(-n2nc(-c3ccccc3)cc2-c2ccccc2)nc1C)=C\c1ccccc1 | – | > 100
44 | C=C[C@]1(O)CCC[C@]2(C)C(=O)CCC12C (stereo not given in full) | – | > 100
45 | CCCCCN1CCN(c2ncccn2)CC1 | – | > 100
46 | CC1(C)C(C#N)=[N+]([O-])C(C)(C)N1O | – | > 100
47 | CCOC(=O)C(Cc1c[nH]c2ccc([N+](=O)[O-])cc12)(NC(C)=O)C(=O)OCC | > 1000 | > 1000
48 | CO/[N+]([O-])=C\C(=O)N/C=C/C(=O)O | – | > 100
49 | CCc1n[nH]c(=O)n1N1C(=O)CCC1=O | – | > 100
50 | NCCCCCCCCn1c2c(c3ccccc3c1=O)C(=O)c1ccccc1-2 | 2.53 | 5.72
